57 compounds from the supplement of paper PMC9446081 can be followed below.

The campaign covered roughly 39,000 compounds. About 220 (0.56%) showed activity. Some of the results follow.
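Also: static incubation at 37 °C against the wild-type strain, values averaged over two biological replicates.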

The test system of this assay is Escherichia coli K-12 BW25113. Put plainly: relative growth (OD600 normalised to plate interquartile mean) (fraction); higher = less growth inhibition, active = 0.2 or less. The following applies: 50 µM; LB; incubation time: overnight (16-24 h).
On to `C[C@H]1CCCCO[C@H](CN(C)C(=O)Cc2ccccc2)[C@@H](C)CN([C@@H](C)CO)C(=O)c2cc(NS(=O)(=O)c3ccc(Cl)cc3)ccc2O1`, for which the relative growth was inactive: 1.02.
As for `COc1ccc(C(=O)Nc2cccc(CN3C(=O)[C@@]4(O[C@@H](CC(=O)N5Cc6ccccc6C[C@H]5CO)[C@H]([Si](C)(C)c5ccc(OC)cc5)[C@H]4C)c4ccccc43)c2)cc1`, the figure is inactive: 1.02; as for `C[C@H]1CN([C@@H](C)CO)C(=O)c2cc(NC(=O)NC3CCCCC3)ccc2O[C@@H]1CN(C)C(=O)Nc1ccc(C(F)(F)F)cc1`, inactive: 1.02.
Regarding `C[C@@H]1CCCCO[C@H](CN(C)C(=O)CCC(F)(F)F)[C@H](C)CN([C@@H](C)CO)C(=O)c2cc(NS(=O)(=O)c3ccc(Cl)cc3)ccc2O1`, the relative growth was inactive: 0.99.
For `C=CCN1C(=O)[C@]2(O[C@H](CCO)[C@@H]([Si](C)(C)c3ccc(OC)cc3)[C@@H]2C)c2cc(N(C=O)c3ccccc3)ccc21`, the relative growth was inactive: 1.03.
On to `C[C@@H]1CN([C@@H](C)CO)C(=O)Cc2cc(NC(=O)Nc3ccc4c(c3)OCO4)ccc2O[C@H]1CN(C)Cc1ccc(C(F)(F)F)cc1`, for which the relative growth was inactive: 1.03.
On to `CS(=O)(=O)Nc1ccc2c(c1)[C@@H]1C[C@H](CC(=O)NCC3CC3)O[C@@H](CO)[C@@H]1O2`, for which the relative growth is inactive: 0.992.
In the case of `COCCN1C[C@H]2CN(Cc3nccn3C)C[C@H]2C1=O`, the relative growth is inactive: 0.911.
For the compound `C[C@@H]1CCCCO[C@@H](CN(C)C(=O)Nc2ccc3c(c2)OCO3)[C@@H](C)CN([C@@H](C)CO)C(=O)c2cc(NC(=O)Nc3ccc4c(c3)OCO4)ccc2O1`, the relative growth is inactive: 1.03.
With `O=C(N/N=C/[C@@H](O)[C@H](O)[C@H](O)CO)c1ccccn1`, the relative growth was inactive: 0.97.
On to `COCC(=O)Nc1ccc2c(c1)[C@@H]1C[C@H](CC(=O)N3CCOCC3)O[C@H](CO)[C@@H]1O2`, for which the relative growth was inactive: 1.01.
As to `CN1CCN(C(=O)C[C@H]2C=C[C@H](NC(=O)Cc3ccccn3)[C@H](CO)O2)CC1`, the relative growth was inactive: 1.03.
As for `CC(C)CC#Cc1ccc2c(c1)O[C@H](CN(C)S(=O)(=O)c1cccc(F)c1)[C@H](C)CN([C@H](C)CO)S2(=O)=O`, the figure is inactive: 1.04; as for `C[N+](C)(C)CCCCNC(=O)[C@@H]1C[C@@H]2C(=O)N3CCC[C@H]3C(=O)N2[C@@H]1c1cccc(OCCO)c1`, inactive: 0.988.
Turning to `NCCNCCNCCNCCN`, the relative growth is inactive: 0.962.
As for `Cc1ccc(S(=O)(=O)Nc2ccc3c(c2)C(=O)N([C@@H](C)CO)C[C@H](C)[C@H](CN(C)C(=O)C2CCCCC2)OCCCC[C@@H](C)O3)cc1`, the relative growth is inactive: 0.94.
`O=S(=O)([O-])CCCS(=O)(=O)[O-].[Na+].[Na+]`: the relative growth was inactive: 1.05.
As for `COc1ccc(CN(C)C[C@H]2OCCCC[C@@H](C)Oc3ccc(NC(=O)C4CCCCC4)cc3C(=O)N([C@@H](C)CO)C[C@@H]2C)cc1`, the figure is inactive: 0.989; as for `C[C@@H](Oc1cc(-n2cnc3ccc(CN4CCN(C)CC4)cc32)sc1C(N)=O)c1ccccc1C(F)(F)F`, inactive: 0.979; as for `O=C(NO)c1cccc(C(=O)N/N=C/[C@H](O)[C@@H](O)[C@H](O)[C@H](O)CO)c1`, inactive: 0.999.
As for `C[C@@H]1CN([C@H](C)CO)S(=O)(=O)c2ccc(C#C[C@@H](C)O)cc2O[C@H]1CN(C)C(=O)c1ccccc1`, the figure is inactive: 0.996; as for `COC(=O)C[C@@H]1CC[C@H]2[C@@H](COC[C@H](O)CN2S(=O)(=O)c2cn(C)cn2)O1`, inactive: 0.998; as for `C[C@H]1CN([C@@H](C)CO)C(=O)c2cccc(NC(=O)Nc3ccc4c(c3)OCO4)c2O[C@H]1CN(C)S(=O)(=O)c1cn(C)cn1`, inactive: 1.02.
With `COc1cccc(C#Cc2ccc([C@H]3[C@H]4CN(S(=O)(=O)c5ccccc5C)CC(=O)N4[C@H]3CO)cc2)c1`, the relative growth was inactive: 1.03.
Regarding `Cc1cc(C)n([C@@H](CC(=O)O)C(=O)O)n1`, the relative growth is inactive: 0.97.
Turning to `C[C@@H]1CN([C@H](C)CO)C(=O)c2cccc(NC(=O)Nc3ccc(C(F)(F)F)cc3)c2O[C@@H]1CN(C)C(=O)Nc1ccc2c(c1)OCO2`, the relative growth was inactive: 0.922.
On to `COCCOC(=O)N1C(=O)[C@@]2(c3ccccc31)[C@H](C(=O)Nc1nc3ccccc3s1)[C@H]1C(=O)O[C@H](c3ccccc3)[C@H](c3ccccc3)N1[C@@H]2c1ccc(OCCO)cc1`, for which the relative growth is inactive: 1.05.
Consider `C[C@@H]1CCCCO[C@H](CN(C)C(=O)C2CCCCC2)[C@H](C)CN([C@@H](C)CO)C(=O)c2cc(NC(=O)c3ccncc3)ccc2O1`, for which the relative growth was inactive: 1.02.
Take `C[C@@H]1CN([C@H](C)CO)S(=O)(=O)c2ccc(C#CC(C)(C)O)cc2O[C@H]1CN(C)Cc1ccc(F)cc1`: the relative growth was inactive: 0.997.
On to `C[C@@H]1CN([C@H](C)CO)C(=O)Cc2cc(NC(=O)Nc3ccc(C(F)(F)F)cc3)ccc2O[C@H]1CN(C)C(=O)Nc1ccc(C(F)(F)F)cc1`, for which the relative growth was inactive: 0.994.
As for `CC(C)CC#Cc1ccc2c(c1)O[C@H](CN(C)S(=O)(=O)c1cccc(F)c1)[C@@H](C)CN([C@@H](C)CO)S2(=O)=O`, the figure is inactive: 1.04; as for `C=CCOC(=O)[C@H]1[C@@H]2C(=O)O[C@@H](c3ccccc3)[C@@H](c3ccccc3)N2[C@@H](c2ccc(OCCOC(=O)[C@@H]3C[C@@H]4C(=O)N[C@@H](CCCC[N+](C)(C)C)C(=O)N4[C@@H]3c3cccc(OCCO)c3)cc2)[C@]12C(=O)Nc1ccc(I)cc12`, inactive: 1.03.
As for `C[C@@H]1CCCCO[C@@H](CN(C)C(=O)c2ccncc2)[C@@H](C)CN([C@H](C)CO)C(=O)c2cc(NS(=O)(=O)c3cn(C)cn3)ccc2O1`, the relative growth was inactive: 0.985.
`C[C@H](CO)N1C[C@H](C)[C@@H](CN(C)Cc2ccc(C(=O)Nc3ccccc3N)cc2)Oc2ccc(NC(=O)NC3CCCCC3)cc2CC1=O`: the relative growth is inactive: 0.989.
For `C[C@@H]1CN([C@@H](C)CO)C(=O)c2cc(NC(=O)C3CCCCC3)ccc2O[C@@H]1CN(C)Cc1ccc(C(F)(F)F)cc1`, the relative growth was inactive: 1.02.
`C[C@@H]1CN([C@H](C)CO)C(=O)c2cc(Br)cnc2O[C@H]1CN(C)Cc1ccc2c(c1)OCO2`: the relative growth is inactive: 0.997.
Next, `CC(C)(N)c1cn(C2CCN(C(=O)C3CCC(C(C)(C)C)CC3)CC2)nn1` (configuration not stated): inactive: 0.988; `C[C@H]1CCCCO[C@@H](CN(C)CC2CCCCC2)[C@@H](C)CN([C@@H](C)CO)C(=O)c2cc(NC(=O)Nc3ccccc3)ccc2O1`: inactive: 0.977.
With `C[C@H](CO)N1C[C@H](C)[C@H](CN(C)Cc2ccc3c(c2)OCO3)Oc2ccc(NC(=O)Nc3ccc(C(F)(F)F)cc3)cc2CC1=O`, the relative growth was inactive: 0.946.
As for `Cc1ccc(S(=O)(=O)N(C)C[C@@H]2OCCCC[C@H](C)Oc3ccc(NC(=O)Nc4ccc5c(c4)OCO5)cc3C(=O)N([C@H](C)CO)C[C@@H]2C)cc1`, the figure is inactive: 0.993; as for `COc1ccc(S(=O)(=O)N(C)C[C@@H]2Oc3ccc(NS(C)(=O)=O)cc3C(=O)N([C@H](C)CO)C[C@H]2C)cc1`, inactive: 0.991; as for `C[C@@H]1CCCCO[C@@H](CN(C)C(=O)Nc2ccc3c(c2)OCO3)[C@@H](C)CN([C@H](C)CO)C(=O)c2cc(NC(=O)C3CCCCC3)ccc2O1`, inactive: 0.984.
As for `C[C@@H]1CN([C@@H](C)CO)C(=O)c2cc(NS(=O)(=O)c3cccs3)ccc2O[C@H]1CN(C)C(=O)Nc1cccc2ccccc12`, the figure is inactive: 0.982; as for `COc1ccc(CN(C)C[C@@H]2OCCCC[C@@H](C)Oc3ccc(NC(=O)Nc4ccc(C(F)(F)F)cc4)cc3C(=O)N([C@H](C)CO)C[C@@H]2C)cc1`, inactive: 1.05; as for `C[C@H](CO)N1C[C@H](C)[C@@H](CN(C)S(=O)(=O)c2cccc(C#N)c2)OCc2cn(nn2)CCCC1=O`, inactive: 0.99.
In the case of `Cc1ccc(S(=O)(=O)N(C)C[C@@H]2Oc3c(NS(=O)(=O)c4c(C)noc4C)cccc3C(=O)N([C@H](C)CO)C[C@@H]2C)cc1`, the relative growth was inactive: 1.
As for `Cc1nn(C)c(COc2ccc(N3CCN(S(=O)(=O)N(C)C)CC3)cc2)c1-c1cccc2c(CCCOc3cccc4ccccc34)c(C(=O)O)n(CCN3CCNCC3)c12`, the relative growth is inactive: 1.01.
Take `COC(=O)c1cn(CC(=O)N2CCN(C)CC2)nn1`: the relative growth is inactive: 0.978.
On to `C[C@H](CO)N1C[C@H](C)[C@@H](CN(C)S(=O)(=O)c2cccs2)Oc2c(NS(C)(=O)=O)cccc2C1=O`, for which the relative growth was inactive: 0.995.
For `C[C@H](CO)N1C[C@H](C)[C@@H](CN(C)Cc2ccc(Oc3ccccc3)cc2)Oc2c(NC(=O)c3ccncc3)cccc2C1=O`, the relative growth was inactive: 1.06.
As for `C[C@H](CO)N1C[C@H](C)[C@H](CN(C)S(=O)(=O)c2ccccc2)Oc2ccc(NS(=O)(=O)c3cn(C)cn3)cc2CC1=O`, the figure is inactive: 0.956.
As for `O=C(O)c1cc(-n2cnnn2)ccc1O`, the figure is inactive: 1.02.
As for `CC(C)NC(=O)Nc1ccc2c(c1)C(=O)N([C@@H](C)CO)C[C@@H](C)[C@@H](CN(C)Cc1ccc(C(F)(F)F)cc1)OCCCC[C@H](C)O2`, the relative growth is inactive: 0.934.
As for `C[C@@H]1CCCCO[C@@H](CN(C)Cc2ccc(C(F)(F)F)cc2)[C@H](C)CN([C@H](C)CO)C(=O)c2cc(NS(=O)(=O)c3cccs3)ccc2O1`, the figure is inactive: 1.05; as for `Cc1noc(C)c1S(=O)(=O)N(C)C[C@@H]1Oc2ccc(NC(=O)c3ccncc3)cc2CC(=O)N([C@H](C)CO)C[C@@H]1C`, inactive: 1.01; as for `C[C@@H]1CN([C@@H](C)CO)C(=O)c2cccc(NC(=O)Nc3ccc(C(F)(F)F)cc3)c2O[C@H]1CN(C)Cc1ccncc1`, inactive: 0.943.
As to `C[C@H](CO)N1C[C@H](C)[C@@H](CN(C)C(=O)Nc2ccc3c(c2)OCCO3)OCc2cnnn2CCCC1=O`, the relative growth was inactive: 0.975.
